The values below come from PubChem BioAssay AID1508624 (National Center for Advancing Translational Sciences (NCATS), 2021).

The whole screen tested about 48,000 compounds, of which about 120 (0.25%) were called active. Roughly 4% stayed inconclusive and do not appear here. Calls come from the whole dose curve; as a rule, active = well fitted activation curve with a large enough effect; inconclusive = small, poorly fitted or top-dose-only effect, or another doubt; inactive = no such curve, though single readings can be large or run the other way. This is one part of the list.

This test is described as follows: Primary qHTS for Identification of Small Molecule Activators of Huntingtin-Antisense Promoter Activity. Note: nearly all actives have a fitted effect of over 55% in size. The settings on record: HEK293 HTT-AS promoter firefly luciferase reporter (activity 0% = vehicle and -100% = no light), 24 h; series mostly up to 57.5 µM; activity change, positive = activation: at the top concentration. The procedure, abridged:
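HEK293 luciferase promoter-reporter cells (2,500/well) plated 24 h, then compounds added at up to 57.5 uM final for 24 h at 37 °C. Firefly luminescence by Dual-Glo, normalized to vehicle (0%) and zero RLU (-100%).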
`CCOc1ccc(NC(=O)CSc2nc3ccsc3c(=O)n2C(C)CC)cc1` (stereo not drawn): the “activity change, positive = activation” value is inactive: -3.37%. On to `CCOc1ccc(CCNC(=O)CCc2c(C)nc3c(c(C)nn3-c3ccc(C)c(C)c3)c2C)cc1`, for which the “activity change, positive = activation” value is inactive: 3.18%.

`Cc1cccc2c1-c1sc(C(=O)N3CCN(c4ccccc4)CC3)cc1CO2`: the “activity change, positive = activation” value is inactive: -1.51%. For the molecule `COc1ccc(-c2noc(N3CCC(C(=O)N4CCN(c5ccccc5OC)CC4)CC3)n2)cc1`, the “activity change, positive = activation” value is inactive: -58.4%.

Take `CCCCNS(=O)(=O)c1ccc2nc(-c3cccnc3)cc(C(=O)NCCCOC(C)C)c2c1`: the “activity change, positive = activation” value is inactive: 14.6%. As for `CCOc1cccc(Nc2nn(-c3ccc(OC(F)(F)F)cc3)nc2C(C)=O)c1`, the “activity change, positive = activation” value was inactive: -2.33%.

With `CCOC(=O)c1cnc2c(C)c(Cl)ccc2c1NCCc1ccc(OC)c(OC)c1`, the “activity change, positive = activation” value is inactive: -11.7%.

For `Cc1nnc(C)n1-c1ccc(C(=O)Nc2cccc(Br)c2)cc1`, the “activity change, positive = activation” value was inactive: -9.98%.

Regarding `COCCCNC(=O)NC(CCC(C)C)c1c(-n2cccc2)sc2c1CCN(C)C2` (stereo not drawn), the “activity change, positive = activation” value is inactive: -0.673%.

Regarding `Cc1c(Cl)cccc1NC(=O)CCCn1nc(C)c2sc3ccccc3c2c1=O`, the “activity change, positive = activation” value was inactive: -1.65%. In the case of `CCC1CCCCN1S(=O)(=O)c1ccc(NC(=O)c2cc(=O)c3c(C)cc(C)cc3o2)cc1` (stereo not drawn) it was inactive: -10.7%. On to `COc1cccc(N2CCN(c3c4c(nc5nncn35)CCC4)CC2)c1`, for which the “activity change, positive = activation” value was inactive: -47.5%. As to `Cc1cccc(Cn2cc3c(=O)n(CC(=O)Nc4c(C)cccc4C)nc-3c3cc(F)ccc32)c1`, the “activity change, positive = activation” value was inactive: -16.4%.

On to `CC(C)Sc1nc2sc3c(c2c(=O)n1Cc1ccccc1)CCCC3`, for which the “activity change, positive = activation” value was inactive: -2.23%. Take `CCCCCCCCc1ccc(CCC(N)(CO)CO)cc1`: the “activity change, positive = activation” value is inactive: -16.4%. Regarding `Cc1ccc(NC(=O)C2CCN(S(=O)(=O)c3c(C)noc3C)CC2)cc1`, the “activity change, positive = activation” value was inactive: -5.77%. As for `CC1(C)CC(=O)c2cc(-c3nc(-c4ccccc4)cs3)c(=O)[nH]c2C1`, the “activity change, positive = activation” value is inactive: -9.62%. For `O=C(NCCN1CCN(c2ccccc2)CC1)Nc1cccc(Br)c1` the value was inactive: -7.1%. For `Cc1cc(N2CCN(c3cccc(C)c3C)CC2)n2cnnc2n1`, the “activity change, positive = activation” value was inactive: -17.1%. For `CCOC(=O)c1cnn(-c2ccc(C(=O)Nc3ccc(OC(F)(F)F)cc3)cc2)c1N` the value was inactive: 0.251%. Regarding `CC(=O)Nc1ccc(NC(=O)C2CCCN(S(=O)(=O)c3ccc4c(c3)CCCC(=O)N4)C2)cc1` (stereo not drawn), the “activity change, positive = activation” value was inactive: -2.3%. Regarding `Cc1ccc(N(CC(=O)NCCc2ccccc2C)S(=O)(=O)N(C)C)cc1`, the “activity change, positive = activation” value was inactive: -21.5%.

Regarding `COc1ccccc1CNC(=O)c1cccc(N2CCCS2(=O)=O)c1`, the “activity change, positive = activation” value is inactive: 2.52%. For `CCOC(=O)c1ccc(NC(=O)C2CC(=O)NC(=Nc3ccc(C)c(C)c3)S2)cc1` (stereo not drawn) the value was inactive: -29.6%. As for `COc1ccccc1CNC(=O)Cn1c(=O)oc2cc(S(=O)(=O)N3CCCC3)ccc21`, the “activity change, positive = activation” value is inactive: -31.8%. For `CCCCN(C)CCNC(=O)c1ccc(Cn2c(=O)[nH]c3cc(OC)c(OC)cc3c2=O)cc1` the value was inactive: 2.42%; for `COc1ccc(-c2noc(N(c3ccc(F)c(Cl)c3)c3nc(-c4ccc(OC)c(OC)c4)no3)n2)cc1OC`, inactive: -39.4%; for `COc1cc(-c2nc(S(=O)(=O)c3ccc(Br)cc3)c(N3CCOCC3)o2)cc(OC)c1OC`, inactive: -20.1%. For `COc1ccc(Br)cc1C(=O)Nc1cccc2ccc(C)nc12`, the “activity change, positive = activation” value was inactive: 6.58%. For the molecule `CCc1nc2nc(C)cc(Nc3cc(Cl)ccc3C)n2n1`, the “activity change, positive = activation” value was inactive: -18.8%. In the case of `CCc1ccc(CNC(=O)c2ccc3c(Cl)c4c(nc3c2)CCCC4)cc1` it was inactive: 0.264%. Turning to `COc1ccc(Cl)cc1-n1nnc(-c2nc(-c3ccccc3)no2)c1C`, the “activity change, positive = activation” value is inactive: 11.3%. In the case of `Cn1c(SCC(=O)Nc2ccccc2)nnc1-c1ccccc1` it was inactive: 9.79%. As to `COc1ccc(-c2nc3cc(C(C)C)ccc3o2)cc1NC(=O)c1ccccc1[N+](=O)[O-]`, the “activity change, positive = activation” value is inactive: -21.4%. Take `O=C1OC2(c3ccc(O)cc3Oc3cc(O)ccc32)c2ccccc21`: the “activity change, positive = activation” value is inactive: -7.21%. In the case of `COc1ccc2c(c1)c(=O)c(C(=O)c1ccc(C)c(C)c1)cn2CC(=O)Nc1ccc2c(c1)OCCO2` it was inactive: -9.21%. Take `CCOc1ccccc1CNC(=O)CCn1c(=O)c2cccn2c2ccc(F)cc21`: the “activity change, positive = activation” value was inactive: -17.7%. Regarding `Cc1ccc(Cn2c(CN3CCC(C(=O)NCc4ccccc4C)CC3)cc3ccccc32)cc1`, the “activity change, positive = activation” value was inactive: -20.5%. In the case of `COc1ccc(NC(=O)C2COc3ccccc3C2)cc1Cl` (stereo not drawn) it was inactive: 23.9%; in that of `Cc1ccc2c(n1)Oc1ccc(C(C)C(=O)OCC(=O)N(C)C)cc1C2` (stereo not drawn), “inactive”. In the case of `COc1ccccc1N1CCN(C(=O)Cn2c(=O)n3nc(-c4ccc(C)cc4)nc3c3ccccc32)CC1` it was inactive: 8.8%; in that of `CC(C)Cc1ccc(S(=O)(=O)N2CCC(c3ccncc3)CC2)cc1`, inactive: -79.8%; in that of `COc1ccc(NC(=O)c2cccc(N3CCCS3(=O)=O)c2)cc1OC`, inactive: 27.9%.

On to `COC(=O)c1ccc(NC(=O)CCS(=O)(=O)c2ccc(Br)s2)cc1`, for which the “activity change, positive = activation” value is inactive: -30.9%.

As to `Cc1nc(N2CCCC2)ncc1C(=O)NCc1cccc(Cl)c1`, the “activity change, positive = activation” value was inactive: -1.19%. Turning to `CCc1ccc(NC(=O)CSc2nc3ccccc3nc2Cc2ccc(C)cc2)cc1`, the “activity change, positive = activation” value is inactive: -6.16%. For `COc1ccc(C)cc1NC(=O)CN1c2ccccc2S(=O)(=O)c2ccccc21` the value was inactive: -22.6%; for `Cc1nnc(N2C(=O)c3oc4ccccc4c(=O)c3C2c2ccc(C(C)(C)C)cc2)s1` (stereo not drawn), inactive: -12.2%.
